Source: ChEMBL document CHEMBL1201862, “PubChem BioAssay data set” (2004)

tested on: NCI-H322M; assay: NCI tumour cell line growth inhibition, 48 h

Structure (SMILES) | GI50
Cc1cc2c3c(c1)CCCN3CCC2 | inactive: > 10 µM
O=C1N=C(S)NNC12c1ccccc1-c1ccccc12 | inactive: > 10 µM
C=C1C(=O)OC2CC3(C)C=CC(=O)C(=C)C3CC12 (stereo unspecified) | inactive: 11.8 µM
COc1cc(Br)cc2cc(-c3cn4ccsc4n3)c(=O)oc12 | inactive: 36.1 µM
O=C1[C@@H]2C3SC(c4ccccc43)[C@@H]2C(=O)N1c1ccccc1 | inactive: > 100 µM
CC(C)(C)OC(=O)NC(Cc1ccccc1)C(=O)OCN1C(=O)C2C3C=CC(C2C1=O)C1C2C(=O)N(COC(=O)C(Cc4ccccc4)NC(=O)OC(C)(C)C)C(=O)C2C31 (stereo unspecified) | inactive: 76.6 µM
COC(=O)/C=C/N1CC1 | inactive: > 10 µM
C=CCC1C2CCC(O[Si](C(C)C)(C(C)C)C(C)C)(C(C(=O)OC)C2)C1O (stereo unspecified) | inactive: 41.8 µM
COc1c(NC(C)=O)c2ccccc2c2ccccc12 | inactive: > 100 µM
CCCCn1/c(=N/C(=S)N(C)C)ss/c1=N\C(=S)N(C)C | inactive: > 100 µM
[O-]/[N+](=C\c1ccccc1OC(=S)S)c1ccc(Cl)cc1 | inactive: 80.9 µM
COC(=O)/C(C#N)=C(\N)C(Cl)(Cl)Cl | inactive: 5.69 µM
Nc1nc(=S)[nH]c2nc3c(c(-c4ccccc4)c12)CCCC3 | inactive: > 100 µM
CC(C)(CC(O)C#N)/[N+]([O-])=[N+](\[O-])C(C)(C)CC(O)C#N (stereo unspecified) | inactive: > 100 µM
O=[N+]([O-])c1ccc(C(Nc2ccccc2)c2ccc3cccnc3c2O)cc1 (stereo unspecified) | inactive: 6.14 µM
Clc1cccc(C2SCc3nc4ccccc4n32)c1 (stereo unspecified) | inactive: 45.5 µM
COC(=O)C(=O)C(C(=O)C(=O)Nc1ccc([N+](=O)[O-])cc1C#N)c1nc2ccc([N+](=O)[O-])cc2nc1O (stereo unspecified) | inactive: > 100 µM
Cc1ccc(S(=O)(=O)NC(=O)NCC(=O)O)cc1 | inactive: > 100 µM
CC(C)C1=CC23CCC4C(C)(C(=O)O)CCCC4(C)C2CC1C1C(=O)N(CCCCCCN2C(=O)C4C5CC6C7(C)CCCC(C)(C(=O)O)C7CCC6(C=C5C(C)C)C4C2=O)C(=O)C13 (stereo unspecified) | inactive: 10.6 µM
O=c1/c(=C/c2ccc(-c3ccc(Cl)cc3Cl)o2)sc2n1[C@@H](c1ccc3c(c1)OCO3)C=C(c1cc(F)c(Cl)cc1Cl)N=2 | inactive: 19.3 µM
C[n+]1c(-c2ccc(/C=N\Nc3ccnc(N/N=C/c4ccc(-c5cn6ccsc6[n+]5C)cc4)n3)cc2)cn2ccsc21 | inactive: 25 µM
COc1nncc2[nH]c(-c3ccccc3)cc12 | inactive: > 100 µM
CC[As](CC)SCC1OC(OC(C)=O)C(OC(C)=O)C(OC(C)=O)C1OC(C)=O (stereo unspecified) | inactive: 19.1 µM

Structure (SMILES) | GI50
CCc1nc(N)nc(N)c1-c1ccc(Cl)c([N+]#N)c1 | inactive: 56.2 µM
Cc1ccnc(NS(=O)(=O)c2ccc(NC3=CC(=O)C(=O)c4ccccc43)cc2)n1 | inactive: > 100 µM
COC(=O)C1=C(O)CCCC(C2CCCCC(=O)C2C(=O)OC)=C1 (stereo unspecified) | inactive: 79.1 µM
COc1ccc2[nH]cc(CCNC(C)=O)c2c1 [MELATONIN] | inactive: > 100 µM
COc1cccc(C2N3CCCCC3[C@@H]3c4[nH]c5ccccc5c4CCN23)c1OC (stereo partly specified) | inactive: 15.4 µM
Oc1c2cccc1Cc1cccc3c1OCCOCCOCCOCCOc1c(cccc1Cc1cccc(c1O)C3)C2 | inactive: > 100 µM
Cc1ccc([S+]([O-])C(C)C(Cl)c2ccccc2)cc1 (stereo unspecified) | inactive: > 100 µM
CC(CO)C1C[C@H](O)[C@@]2(C)CC(=O)C=C(CO)[C@@H]2C1 (stereo partly specified) | inactive: > 100 µM
CC(C)C(=O)CC(Sc1ccc(N)cc1)c1ccccc1 (stereo unspecified) | inactive: 28.4 µM
C=CCC1(C#N)C(=S)NC2=C(C(=O)CC(C)(C)C2)C1c1ccccc1 (stereo unspecified) | inactive: 21.1 µM
COC(=O)C1=C(OC(=O)/C(=C/c2c(F)cccc2F)c2ccccc2)C(C(=O)OC)[C@@]2(O)[C@@H](C(=O)OC)[C@H](C)C[C@@H]1[C@@H]2C(=O)OC (stereo partly specified) | inactive: > 100 µM
O=C(O)/C(Cc1ccc([N+](=O)[O-])cc1)=N\O | inactive: > 100 µM
Brc1ccc2c(c1)[C@H]1CCc3c([nH]c4ccccc34)[C@H]1N2 | inactive: 11.1 µM
C/C(=N/NC(=O)CC(=O)N(C(=O)c1ccccc1Cl)c1ccc(C)cc1)c1cc2ccccc2oc1=O | inactive: > 100 µM
COC(=O)c1c(CC#N)cccc1CC#N | inactive: > 100 µM
CCN(CC)c1ccc(C(=C2C=CC(=[N+](CC)CC)C=C2)c2ccc(N(CC)CC)cc2)cc1 | active: 0.361 µM
COc1ccc2oc3c4c2c1CCC4CCC3=O (stereo unspecified) | inactive: > 100 µM
CN(C)C(=S)/N=c1\ss/c(=N\C(=S)N(C)C)n1C1CCCCC1 | inactive: > 100 µM
O=c1c2ccccc2n2n1Cc1ccccc1C2 | inactive: 75.7 µM
C1CCN(CCC2CCCCN2)CC1 (stereo unspecified) | inactive: > 100 µM
CCOC(=O)/C(C#N)=C/c1[nH]c(C)c(C)c1C | inactive: > 100 µM
O=C(O)C(Cl)(Cl)Cl | inactive: > 100 µM
Cc1nn(-c2ccccn2)c2c1C(SC#N)=C(C=O)CC2 | inactive: 15 µM

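Grown in 96-well plates, cells were treated for 48 hours with each compound at five concentrations. Insufficient inhibition: endpoint recorded as highest concentration tested. GI50 is the concentration that inhibits growth by half.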 The source made the active and inactive calls. Cut-off read from the data, not from the text of the source: active = GI50 up to about 1.1 µM and inactive = higher.
